Measurements from the supplement of paper PMC3334620.
In all, about 33,000 sequences were measured (“E-score (-0.5 to 0.5)”: median about -0.043, highest 2% from about 0.37 on). The list shows a part of the results.

biological target: T1, Upc2 (UniProt Q12151); experiment: PBM E-score (8-mer binding enrichment) (E-score (-0.5 to 0.5)); higher = stronger / more preferred TF binding; most listed sequences are background and not binding sites; settings: protein concentration: 200 nM; construct: GST-full length
T1 sequence: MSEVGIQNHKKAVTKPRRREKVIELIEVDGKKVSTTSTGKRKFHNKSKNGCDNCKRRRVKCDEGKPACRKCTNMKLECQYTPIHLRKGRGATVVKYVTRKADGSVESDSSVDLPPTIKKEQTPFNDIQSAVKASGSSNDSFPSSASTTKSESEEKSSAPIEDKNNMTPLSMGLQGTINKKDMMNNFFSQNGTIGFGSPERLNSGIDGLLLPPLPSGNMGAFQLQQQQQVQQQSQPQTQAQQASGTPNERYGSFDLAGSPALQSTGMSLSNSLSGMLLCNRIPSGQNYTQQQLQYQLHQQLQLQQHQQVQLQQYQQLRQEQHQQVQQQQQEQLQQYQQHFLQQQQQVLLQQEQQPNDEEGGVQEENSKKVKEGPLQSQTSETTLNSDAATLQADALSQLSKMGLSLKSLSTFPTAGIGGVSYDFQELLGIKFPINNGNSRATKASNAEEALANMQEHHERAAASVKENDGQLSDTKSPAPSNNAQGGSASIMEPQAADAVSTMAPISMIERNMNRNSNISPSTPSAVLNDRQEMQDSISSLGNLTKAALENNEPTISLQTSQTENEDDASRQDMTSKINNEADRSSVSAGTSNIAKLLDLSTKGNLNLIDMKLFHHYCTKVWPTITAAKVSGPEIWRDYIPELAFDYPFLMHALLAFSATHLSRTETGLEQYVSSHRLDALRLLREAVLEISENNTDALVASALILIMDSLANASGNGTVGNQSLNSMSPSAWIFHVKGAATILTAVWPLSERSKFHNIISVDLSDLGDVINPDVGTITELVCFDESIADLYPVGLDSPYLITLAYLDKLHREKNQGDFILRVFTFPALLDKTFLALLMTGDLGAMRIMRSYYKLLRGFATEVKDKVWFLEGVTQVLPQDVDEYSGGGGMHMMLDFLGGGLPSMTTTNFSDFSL
Procedure: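 Universal 'all 10-mer' protein binding microarrays (Agilent AMADID 015681) probed with GST-tagged S. cerevisiae TFs (full-length or DBD) made by in vitro transcription/translation (PURExpress), about 100-200 nM. Bound TF was detected with fluorescent anti-GST. Each ungapped 8-mer (which stands for itself and its reverse complement) is scored by the PBM enrichment score (E-score), a modified Wilcoxon-Mann-Whitney statistic from -0.5 to +0.5, computed with the Universal PBM Analysis Suite. Scale: above 0.35 generally sequence-specific binding.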

Sequence | PBM E-score
AGATTGTA | 0.0617
AAAAAGCC | -0.00267
GATCGCGA | 0.0566
CTGTACAA | 0.0214
TACGGAGA | 0.361
TGACGAAA | 0.00712
CCGGTAAG | 0.0284
GCGCTCTA | -0.0458
TAACGCGA | 0.101
CCGTACCC | 0.379
CGCCGCCA | -0.117
AAAACCTA | 0.135
GTTTAATA | 0.203
ACTGACTA | 0.102
AAGCCGAA | -0.0482
ACCTCTAT | -0.189
AATCCAAG | 0.00442
TCCGGACA | -0.224
TACCTATA | 0.0647
AAGTAAAA | -0.118
GCACACAA | -0.163
AAGTGTCA | -0.265

Sequence | PBM E-score
GCTCGTAA | 0.456
GCCACTAA | -0.181
ACTCGGCA | 0.0324
ATGATACC | 0.0985
AACGCTGC | 0.135
CAAATGTG | -0.0181
AGGGAGAT | -0.319
AAGTGAAC | 0.0685
ACAAAAGC | -0.0967
GTGCTCCA | -0.122
CGGAGACC | -0.178
CTGACAGA | -0.0162
TATCAATA | 0.0556
AACCACAC | 0.0708
ATTGGAAA | -0.124
AGTAAAAT | 0.0174
GCCTAACA | -0.122
GTACCTTA | 0.184
CAATGCAA | -0.0983
AGCCGCCA | -0.269
TCACGGAA | -0.0808
AAGCATCC | -0.266

Sequence | PBM E-score
CGGGCTCA | 0.0574
CTATTAAG | -0.227
GCCGTAGC | 0.0955
CGTCAGAG | -0.186
GTGTTACA | -0.0687
GACGACAA | 0.0707
AAACGCTA | 0.183
AGGCGATA | -0.0724
ACTGTGCT | -0.127
ACCCGAGA | 0.101
AGACCCGG | -0.216
CGGTGAGA | -0.195
CAATACAC | 0.0216
CACTGGCG | -0.104
GGGCCTAC | -0.135
ATGTCCCG | -0.17
GCACCACC | -0.319
CCTACAAA | -0.177
CCACTAAA | -0.00434
ACAACGCA | 0.0502
AGTTGGAG | -0.146
CTGGTCTC | -0.23

Sequence | PBM E-score
GAACTGAC | -0.154
GCAACCAC | -0.227
ACCCATTG | -0.0491
ACGTTGCC | -0.0673
ATCCGTCG | 0.242
TAATCCCA | -0.147
GATTGGAC | -0.219
CGCCTCAG | -0.17
ATTTGATC | -0.0896
AATACCCC | -0.221
CCTAGAAC | 0.0471
CCTATCTA | -0.0968
ATGGAATA | -0.0124
AAAACCAG | -0.0476
CAACGCGC | 0.0935
AGCAACAA | -0.0972
ACGGTGAT | 0.0893
ATATTGCG | 0.0841
ACTCATTA | 0.0785
ACAGAGCA | 0.0385
